From the antibiotic and cytotoxicity screens of Wong et al. (2023) come the findings set out here.

Some of the results follow.

The test relates to HepG2. The experiment in a line: cytotoxicity call (relative viability < 0.9). The note with it: 10 µM.
On to `CN1CCCCC[C@@H]1C(=O)O`, for which the cytotoxicity call was “inactive”.

Consider `C[C@H]1CN([C@@H](C)CO)C(=O)c2cccc(NC(=O)Nc3ccc4c(c3)OCO4)c2O[C@H]1CN(C)C(=O)Nc1ccc(C(F)(F)F)cc1`, for which the cytotoxicity call was “inactive”.

As for `C[C@@H]1CCCCO[C@H](CN(C)C(=O)Nc2cccc3ccccc23)[C@@H](C)CN([C@H](C)CO)C(=O)c2cc(NC(=O)c3ccccc3)ccc2O1`, the cytotoxicity call is “inactive”.

For the compound `C[C@@H]1CN([C@@H](C)CO)S(=O)(=O)c2ccc(C3=CCCC3)cc2O[C@H]1CN(C)C(=O)C1CCOCC1`, the cytotoxicity call is “inactive”.

Take `Cc1noc(C)c1S(=O)(=O)N(C)C[C@H]1Oc2ccc(NC(=O)CCN3CCOCC3)cc2CC(=O)N([C@H](C)CO)C[C@H]1C`: the cytotoxicity call is “inactive”.

Consider `C[C@@H]1CCCCO[C@@H](CN(C)C(=O)Nc2ccc(C(F)(F)F)cc2)[C@H](C)CN([C@@H](C)CO)C(=O)c2cc(NS(=O)(=O)c3cccs3)ccc2O1`, for which the cytotoxicity call was “inactive”.

For `C[C@H]1CN([C@@H](C)CO)C(=O)Cc2cc(NS(C)(=O)=O)ccc2O[C@@H]1CN(C)S(=O)(=O)c1cccs1`, the cytotoxicity call was “inactive”.

As to `Cc1[nH]c(=O)[nH]c(=O)c1S(=O)(=O)N1CCC(C(=O)NCCC(C)C)CC1`, the cytotoxicity call was “inactive”.

For `O=C(NCCN1CCOCC1)[C@]1(CCS(=O)(=O)c2ccccc2)N=C(c2ccc(OCCCO)cc2)O[C@@H]1c1ccccc1`, the cytotoxicity call is “inactive”.

Consider `CC(C)Cn1cnc2c(N)nc3ccccc3c21.Cl`, for which the cytotoxicity call is “inactive”.

Turning to `C[C@@H]1CN([C@H](C)CO)C(=O)c2cccc(NC(=O)c3ccc(-c4nccs4)cc3)c2O[C@H]1CN(C)Cc1ccc(C(F)(F)F)cc1`, the cytotoxicity call was “inactive”.

Regarding `COCC#Cc1ccc2c(c1)O[C@H](CN(C)S(=O)(=O)c1ccc(C)cc1)[C@H](C)CN([C@H](C)CO)S2(=O)=O`, the cytotoxicity call was “inactive”.

For `C[C@H](CO)N1C[C@H](C)[C@@H](CN(C)C(=O)Nc2ccc3c(c2)OCO3)OCCCC[C@H](C)Oc2ccc(NC(=O)CCC(F)(F)F)cc2C1=O`, the cytotoxicity call was “inactive”.

With `Cc1noc(C)c1NC(=O)Nc1ccc2c(c1)CC(=O)N([C@@H](C)CO)C[C@H](C)[C@H](CN(C)S(=O)(=O)c1ccccc1)O2`, the cytotoxicity call was “inactive”.

Regarding `COCC(=O)N1C[C@@H](C)[C@@H](OC)CN(C)C(=O)c2ccc(NC(=O)Nc3ccccc3)cc2OC[C@H]1C`, the cytotoxicity call was “inactive”.

Regarding `CCN1C(=O)[C@H]2[C@@H](O)CS[C@H]2C1=O`, the cytotoxicity call was “inactive”.

Turning to `COc1cccc(-c2ccc([C@@H](Oc3cc(-c4ccc(C[C@H](N)C(=O)O)cc4)nc(N)n3)C(F)(F)F)cc2)c1`, the cytotoxicity call is “inactive”.

Regarding `C[C@@H]1CN([C@H](C)CO)C(=O)c2cc(NS(C)(=O)=O)ccc2O[C@@H]1CN(C)Cc1ccc2c(c1)OCO2`, the cytotoxicity call is “inactive”.

For the compound `Cc1noc(C)c1NC(=O)N(C)C[C@@H]1OCCCC[C@H](C)Oc2ccc(NC(=O)Nc3ccc4c(c3)OCO4)cc2C(=O)N([C@@H](C)CO)C[C@H]1C`, the cytotoxicity call was “inactive”.

As for `C[C@@H]1CN([C@@H](C)CO)C(=O)CCCn2nncc2CO[C@@H]1CN(C)C(=O)Nc1ccc(C(C)(C)C)cc1`, the cytotoxicity call is “inactive”.

In the case of `COc1ccc(-c2cnc3c(c2)C(=O)N([C@@H](C)CO)C[C@@H](C)[C@H](CN(C)C(=O)Cc2ccccn2)O3)cc1`, the cytotoxicity call was “inactive”.

In the case of `O=C(C[C@@H]1CC[C@@H]2[C@H](COC[C@H](O)CN2S(=O)(=O)c2ccccc2)O1)N[C@@H]1CCN(Cc2ccccc2)C1`, the cytotoxicity call was “inactive”.

As to `CO[C@H]1CN(C)C(=O)c2ccc(NC(=O)NC(C)C)cc2OC[C@H](C)N(Cc2ccc(-c3ccccn3)cc2)C[C@@H]1C`, the cytotoxicity call was “inactive”.

Regarding `COC(=O)N[C@H](C(=O)N1CCC[C@H]1c1nc(-c2ccc(-c3ccc(-c4c[nH]c([C@@H]5CCCN5C(=O)[C@@H](NC(=O)OC)C(C)C)n4)cc3)cc2)c[nH]1)C(C)C`, the cytotoxicity call is “inactive”.

`CC[C@@H](C)NCc1ccsc1`: the cytotoxicity call is “inactive”.

With `Cc1nn(C)cc1NC(=O)C[C@H]1CC[C@@H]2[C@H](COc3ccc(NC(=O)C4CCOCC4)cc3C(=O)N2C)O1`, the cytotoxicity call is “inactive”.

With `O=C(O)[C@@H]1C[C@@H](O)CN1`, the cytotoxicity call was “inactive”.

In the case of `C[C@@H]1CN([C@H](C)CO)C(=O)Cc2cc(NC(=O)Nc3cccc4ccccc34)ccc2O[C@@H]1CN(C)S(=O)(=O)c1cccs1`, the cytotoxicity call was “inactive”.

Regarding `CCS(=O)(=O)Nc1ccc2c(c1)C(=O)N(C)[C@@H]1CC[C@@H](CC(=O)NCCOC)O[C@H]1CO2`, the cytotoxicity call is “inactive”.

Take `COc1ccc(CN(C)C[C@H]2OCCCC[C@H](C)Oc3ccc(NC(=O)C4CCCCC4)cc3C(=O)N([C@@H](C)CO)C[C@@H]2C)cc1`: the cytotoxicity call is “inactive”.
